Read counts are not given, so values of variants with three or more changes are uncertain.
B1: LINE1-mini (parent)
chain: GGCAGAGCUCAACACAGCGUGGCAAAGUGGCUGUGGCUAGACUGCC

Variants of: B1
Assay: self-cleavage, relative activity (ratio to wild type); higher = more cleavage; in vitro, sequencing; the parent is a self-cleaving ribozyme

Variant | self-cleavage
GUCAGAGCUCAACACAGCGUGGCAAAUUGUCUGUGGUUAUACUGAC [G2U G27U G30U C37U G40U C45A] | 0.01
GGCAGGGCUCAACACAGCGUGGCAAAACGGCUGUGGCUAGACUUCC [A6G G27A U28C G44U] | 0.04
GGCAGAGCUCAACACAUCGGGGCAAAGUGGCUGUGGCUAUACUGCC [G17U U20G G40U] | 0.08
GGCCGAGCUCAACACAGCGUGGCAAAGUGCCUGUAGGUAUAAUGCC [A4C G30C G35A C37G G40U C42A] | 0.15
GGCAGAGCUCAACACAGCGCGGCAAAGUGGCUGUGUCUGGACUGCC [U20C G36U A39G] | 0.01
GGCAGAGCUCAACACAGCGAGGCAACGUGGCGGUGGCUAGACUACC [U20A A26C U32G G44A] | 0.07
GGCAGAGUUCAACACAGCGUGGCAAAGUCGCUGUGGCUAGUCUGUC [C8U G29C A41U C45U] | 0.29
AGCAGAGCUCAGCACAGCGUGUCCAAGUGGCUGUGGCUCGACUGCC [G1A A12G G22U A24C A39C] | 0.03
GCCAGAGCUGAACUCAGCGUGGCAUAGUGGCUGUGGCUAGACUGCC [G2C C10G A14U A25U] | 0.01
GGCAGAGCUCGACACAGAGUGGCAAAGUGGCUCAGGCUAGACUGCC [A11G C18A G33C U34A] | 0.01
GGCGGAGCUUAACACAGCGUGGCAAAGAGGCUGUGGCUAGACUGCC [A4G C10U U28A] | 0.06
GGCAGAGCUCAACACAUCGUGGCAAAGUGGCUCGGGCUAGACUGCC [G17U G33C U34G] | 0.03
GACAGAGCUCAACACAGCGUGGCAAGGUGGCUGAGGCUAGACUGCC [G2A A26G U34A] | 0.07
GGCAGAGCUCGACACAGCGAGGCAAAGAGGCUGUAGCUAGACUGCC [A11G U20A U28A G35A] | 0.02
GGCAGUGCUCAACACAGCGUGGCAAAGUGCCGGUGGCUAGACUGCC [A6U G30C U32G] | 0.07
GGCAGAACUAAACGCAGCGUGGCAAAGUGGUUUUGGCUAGAUUGCC [G7A C10A A14G C31U G33U C42U] | 0.08
GGCAGAGCUCAACACAGAGUAGCAAAGUGGCUGUGGCUAAACUGCC [C18A G21A G40A] | 0.02
GGCAGAGCUCAACACAGCGUGGCAAAGUGGCUAUAGCUAGAACGCC [G33A G35A C42A U43C] | 0.01
GGCAGAGCUCAUGAUAGCGUGGCAAAGUGGCUGUGGCUAGACUGCC [A12U C13G C15U] | 0.03

Variant | self-cleavage
GGCAGAGCUCAACACAGCGUGACAAAGUGGCUGUGGCUAGACAGUC [G22A U43A C45U] | 0.09
GGCAGAGCUCAACACAGCGUGGCAAAGUGGAUUUGGCUAUACUGUC [C31A G33U G40U C45U] | 0.14
GGAAGAGCUCAACACAGCGUGGCAAAGUGGCUGUGGCUAGAAAGCC [C3A C42A U43A] | 0.1
GGCAGAGGUCAAGUAAGCGUGGCAAAGUAGCUGUGGCUAGAUUGCC [C8G C13G A14U C15A G29A C42U] | 0.03
GGCAGAGCUUAAAACAGCGGGGCAAACUGGCUAUGGCUAUACUGCC [C10U C13A U20G G27C G33A G40U] | 0.01
GGCAGAUCUCAACACAGCGUGGCAAAGCGGCUGUGGCUAGACUACC [G7U U28C G44A] | 0.2
GGCAGAGCUCAACACGGCGUGGCAAAGUCGCUGUGGCUAUACUGCC [A16G G29C G40U] | 0.04
GGUAGAGCUCAACACAGCGUGGCAAAAUGGCUGUGGCUAGGCUACC [C3U G27A A41G G44A] | 0.08
GGCAGAGCACAACACAGCGUGCCAAAGUGGCUGUGGCUAGACUACC [U9A G22C G44A] | 0.05
GGCAGAGCUAAACACAGCGUGGCAAAGUGGCUGUGGCUUGGCUGCC [C10A A39U A41G] | 0.02
GGCAGAGCUCAACACAGCGUGGAAAAGUGGUUGUGGCUAGACUGAC [C23A C31U C45A] | 0.68
GGCAGAGGUCAACACAGCGUGGCAAAGUGCCUGUGGCUGGACUGCC [C8G G30C A39G] | 0.02
GGCAGAGCUCAACACAGCGUGGCAAUGUGGGUGAGGCUAGACUGGG [A26U C31G U34A C45G C46G] | 0.07
GGCAGAACUCACCACAGCGUUGCAAAGUGGCAGUGGGUUGACUGCC [G7A A12C G21U U32A C37G A39U] | 0
GGCAGAGCUCUACACAGCGUGGCUAAGUGGGUGUGGUUAGACUGCC [A11U A24U C31G C37U] | 0.01
GGCGGAGCUCAUCACAGCGUGGCAAAGUGGCUGUGGCUAGACUACC [A4G A12U G44A] | 0.03
GGCAGAGCUCAGCACAACGUGGCAAAGUGGCUGUGGGUAGACGGUC [A12G G17A C37G U43G C45U] | 0.01
GGCAGAGCUUAAGACAGCGUGGCAAAGUGGCUGUGUCUAGACUGCC [C10U C13G G36U] | 0.07
GGCAGAGCUCAACACAGCGUGACAAAGUGGUUGUGGCUAGCCUACC [G22A C31U A41C G44A] | 0.02

Variant | self-cleavage
GCCCGAGCUCAACACAGCGUGGCAAAGUGGCUGUGGAUAGACCGCC [G2C A4C C37A U43C] | 0.05
GGCAGAGCUCAGCACAGCGUGGCAAAGUGUCUGUGGCUAGCCUGCC [A12G G30U A41C] | 0.02
GGCAGAGGUCAACACAGCGAGGCAAAGUGGAUGUGGCUAGACUGCC [C8G U20A C31A] | 0
GGCAGAGCUCAACACUGCGUGGCAAAGUGGCUGUCGCGAGACUGCC [A16U G35C U38G] | 0.04
GGCAGAGCUCAACACAGCGUGGCAAAGUGGUUGUCGAUAGACUGCC [C31U G35C C37A] | 0.12
GGCAGCGGCCUACACAGCGUGGCAAAGUGGCUGUGGCUAGACUGCC [A6C C8G U9C A11U] | 0.03
GGCAGAGCUCAAAACAUCGUUGCAAAGUGUCUGUGGCUAGACUGCC [C13A G17U G21U G30U] | 0.04
AGCAGAUCUCAAUACAUCGUGGCAUAGCGACUGUGGCAAGUCUGCC [G1A G7U C13U G17U A25U U28C G30A U38A A41U] | 0.03
GGCAGAGCUCAACACGGCGUGUUAAAGUGCAUCAGUCUAGACUGCA [A16G G22U C23U G30C C31A G33C U34A G36U C46A] | 0
GGCAGAGCUUAACACAGCGUGGCUAAGUGGUUGUGGCUAGACUGCC [C10U A24U C31U] | 0.08
GGCAGAGCUCAACACAUCGUGGCAAAGUGGUUGUAGCUAGACUGCC [G17U C31U G35A] | 0.01
GGUAGAACUAAACACAGCGUGGCAAAGUGGCUGUGGCUAAACUGCC [C3U G7A C10A G40A] | 0.07
GGCAGAGCUCAACAUAGCGUGGCAAAGUGGCUGUGGCAAGCCUGCG [C15U U38A A41C C46G] | 0.01
GGCAGAGCUCAAAACAGCUUGGCAAAGUGGCUGUGGCUAGACUGCA [C13A G19U C46A] | 0.02
GGCAGAGCUAAACACAGCGUGGCAAAGUGGCUGUGACUGGACUGCC [C10A G36A A39G] | 0.02
UGCAGAGCUUAACGCAGCGUGGCAAAGUGCCUGUGGCUAGACUGCG [G1U C10U A14G G30C C46G] | 0.01
GGGAGAGCUCAACACAGCGUGGCAAAGUGGGUCUGGCUAGUCUGCC [C3G C31G G33C A41U] | 0.04
GGCAGGGCUCAACACAACCUGUCAAAGUGGCUGUUGCUAGACUGCC [A6G G17A G19C G22U G35U] | 0.07

— the RNAGym collection of RNA variant scans (doi:10.7554/elife.90254)
